# Reference: PubChem BioAssay AID588855 (National Center for Advancing Translational Sciences (NCATS), 2011)
# The whole screen tested about 410,000 compounds, of which about 5,000 (1.2%) were called active. Inconclusive means that the source gave no clear call. Such entries were picked first, then a sample of the others. The call rests on the fitted dose curve; in most records, active means well fitted inhibition curve with a large enough effect; inconclusive means small, poorly fitted or top-dose-only effect; inactive means no such curve, though single readings can be large or run the other way. Potencies beside an inconclusive call are fits to weak or partial responses and may not hold up.
# Assay: qHTS for Inhibitors of TGF-b; further: nearly all actives have a fitted effect of over 65% in size
# Settings: HepG2 CAGA-GFP TGF-b/SMAD3 reporter, GFP fluorescence, 18 h, TGF-beta stimulated, 500 pg/mL final; series mostly up to 46.1 µM; activity, negative = inhibition: at the top concentration
# Summary of the method: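 GFP signal (ex488/em500-530) from TGF-beta-stimulated HEPG2 CAGA-GFP cells, 500 pg/mL final, 18 h at 37 degrees C in DMEM plus 1% FBS, normalized to unstimulated and DMSO-stimulated controls.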
# On the % scale 0 is the no-effect control and ±100 the full control effect; potency means the concentration at half of the fitted maximal effect; tags describe the fitted curve by direction and shape.
SMILES,Potency,"activity, negative = inhibition"
CCc1ccc(OCC(=O)OCC(=O)c2c(N)n(C)c(=O)n(C)c2=O)cc1,"inconclusive: 0.447 µM [inhibitor, full curve]",
COc1ccc(N(C(=O)Cn2cnc3ccccc32)C(C(=O)NC2CCCCC2)c2ccccc2)cc1 (centres undefined),"inconclusive: 35.5 µM [inhibitor, single point]",
CN1CCN(CCCNC(=O)Cn2c(-c3cccs3)cc3ccccc32)CC1,,inactive: -12.2%
Cc1ccc(Nc2c(-c3ccc(N(C)C)cc3)nc3ncccn23)cc1,,inactive: 18.4%
CC1CCCN(C(=O)CN2CCC(c3nc4ccc(Cl)cc4[nH]3)CC2)C1 (centres undefined),"inconclusive: 22.4 µM [inhibitor, single point]",
CN(C(=O)c1ccccc1OCc1ccc(Cl)cc1)c1ccccc1,"inconclusive: 14.1 µM [inhibitor, single point]",
Cc1ccc(NC(=O)Nc2nnc(N(C)Cc3ccccc3)s2)cc1,"inconclusive: 2.51 µM [inhibitor, full curve, poor fit]",
Cc1cc(NS(=O)(=O)c2ccc(NC(=O)COc3ccc(Cl)cc3)cc2)nc(C)n1,,inactive: -0.976%
CC1CC=CC2C1C(=O)N(Cc1ccccc1)C2c1ccc(F)c(Br)c1 (centres undefined),"inconclusive: 35.5 µM [inhibitor, single point]",
Fc1ccc(CNCCC(Cc2ccccc2)c2ccco2)cc1 (centres undefined),"inconclusive: 35.5 µM [inhibitor, single point]",
CSc1ccc(CN2CCC(CO)(Cc3ccc(Cl)cc3)CC2)cc1,active: 22.4 µM,
Cc1ccc(/C(N)=N/OC(=O)CCCc2ccccc2)cc1,,inactive: -6.85%
Cc1ccc2nc(SCC(=O)c3c[nH]c4ccccc34)[nH]c2c1,"inconclusive: 20 µM [inhibitor, single point]",
O=C(Nc1nnc(-c2cccs2)o1)c1cccc(Oc2ccccc2)c1,"inconclusive: 11.2 µM [inhibitor, partial curve, poor fit]",
C=CCNC(=S)NNC(=O)COc1cccc(Cl)c1,"inconclusive: 2.82 µM [inhibitor, partial curve, poor fit]",
CC1CCCC(n2c(=S)[nH]c3ccccc3c2=O)C1C (centres undefined),active: 14.1 µM,
O=C(OC1CCOC1=O)C1CCN(S(=O)(=O)c2c(Cl)cccc2Cl)CC1 (centres undefined),"inconclusive: 35.5 µM [inhibitor, single point]",
CCO[C@H]1OC(C(=O)N2CCN(Cc3ccc4c(c3)OCO4)CC2)=C[C@@H](C(C)(C)C)[C@@H]1CCCO,"inconclusive: 14.1 µM [inhibitor, single point]",
O=C(Cn1cc(C(F)(F)F)ccc1=O)N/N=C/c1ccccc1O,,inactive: -23.7%
